Data published in article PMC9456277.
No constants are given. Whether binding was seen depends on the method and setting. Binding seen in cells or lysates may run through a third protein. Some results given as binding are weak or reduced against the parent protein; the word gives no strength.

Chains of the proteins cited; added tags and fusions are not shown. Lines headed by an entry give the natural chain unless they say otherwise; changes in a name come on top. A line that says so, or that is headed by a name, gives the form on record, which may keep a tag or linker. Residues count along the entry.
UniProt Q61056: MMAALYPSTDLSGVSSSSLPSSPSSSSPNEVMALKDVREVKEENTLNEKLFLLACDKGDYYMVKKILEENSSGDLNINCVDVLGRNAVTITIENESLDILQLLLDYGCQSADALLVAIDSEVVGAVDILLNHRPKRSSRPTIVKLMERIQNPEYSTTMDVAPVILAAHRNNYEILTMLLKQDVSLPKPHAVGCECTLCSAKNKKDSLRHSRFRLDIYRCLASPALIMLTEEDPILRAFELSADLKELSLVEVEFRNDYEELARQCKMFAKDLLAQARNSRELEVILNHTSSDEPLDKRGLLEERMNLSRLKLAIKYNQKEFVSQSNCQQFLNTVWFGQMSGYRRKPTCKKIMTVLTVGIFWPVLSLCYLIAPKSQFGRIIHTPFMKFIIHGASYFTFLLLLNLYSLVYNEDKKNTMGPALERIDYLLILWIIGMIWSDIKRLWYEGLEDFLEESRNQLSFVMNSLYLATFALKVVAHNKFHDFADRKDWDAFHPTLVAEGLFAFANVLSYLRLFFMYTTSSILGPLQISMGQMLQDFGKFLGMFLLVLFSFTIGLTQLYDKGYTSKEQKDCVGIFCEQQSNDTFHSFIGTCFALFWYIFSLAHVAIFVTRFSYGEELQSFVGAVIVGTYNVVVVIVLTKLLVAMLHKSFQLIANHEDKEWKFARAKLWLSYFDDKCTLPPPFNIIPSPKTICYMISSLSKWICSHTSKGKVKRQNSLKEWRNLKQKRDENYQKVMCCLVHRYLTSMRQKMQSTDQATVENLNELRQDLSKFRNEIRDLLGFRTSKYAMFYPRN
UniProt Q9QX29: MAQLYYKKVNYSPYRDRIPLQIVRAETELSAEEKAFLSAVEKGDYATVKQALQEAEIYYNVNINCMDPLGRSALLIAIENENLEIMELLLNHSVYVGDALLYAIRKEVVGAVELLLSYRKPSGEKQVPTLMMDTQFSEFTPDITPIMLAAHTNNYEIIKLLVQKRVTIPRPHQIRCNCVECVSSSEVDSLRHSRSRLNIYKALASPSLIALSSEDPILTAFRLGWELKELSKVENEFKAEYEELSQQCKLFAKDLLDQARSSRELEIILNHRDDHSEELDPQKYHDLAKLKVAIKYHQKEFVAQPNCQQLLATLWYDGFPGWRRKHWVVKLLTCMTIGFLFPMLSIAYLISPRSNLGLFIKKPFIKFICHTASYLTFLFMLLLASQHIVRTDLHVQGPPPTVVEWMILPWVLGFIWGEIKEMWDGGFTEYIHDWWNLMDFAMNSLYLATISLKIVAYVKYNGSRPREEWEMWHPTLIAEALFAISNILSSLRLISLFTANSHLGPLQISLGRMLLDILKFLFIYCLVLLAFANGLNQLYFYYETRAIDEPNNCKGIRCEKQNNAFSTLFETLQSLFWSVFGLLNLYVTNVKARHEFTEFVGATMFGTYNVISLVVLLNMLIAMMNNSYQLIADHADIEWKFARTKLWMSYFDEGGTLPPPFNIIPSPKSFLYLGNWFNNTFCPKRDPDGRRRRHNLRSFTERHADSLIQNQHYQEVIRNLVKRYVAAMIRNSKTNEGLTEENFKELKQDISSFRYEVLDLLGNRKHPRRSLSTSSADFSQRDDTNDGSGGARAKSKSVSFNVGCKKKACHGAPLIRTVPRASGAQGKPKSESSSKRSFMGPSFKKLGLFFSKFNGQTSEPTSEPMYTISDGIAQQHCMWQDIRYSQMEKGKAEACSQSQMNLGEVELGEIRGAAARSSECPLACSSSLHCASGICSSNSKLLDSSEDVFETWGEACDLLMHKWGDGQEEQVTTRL
UniProt Q9QUQ5: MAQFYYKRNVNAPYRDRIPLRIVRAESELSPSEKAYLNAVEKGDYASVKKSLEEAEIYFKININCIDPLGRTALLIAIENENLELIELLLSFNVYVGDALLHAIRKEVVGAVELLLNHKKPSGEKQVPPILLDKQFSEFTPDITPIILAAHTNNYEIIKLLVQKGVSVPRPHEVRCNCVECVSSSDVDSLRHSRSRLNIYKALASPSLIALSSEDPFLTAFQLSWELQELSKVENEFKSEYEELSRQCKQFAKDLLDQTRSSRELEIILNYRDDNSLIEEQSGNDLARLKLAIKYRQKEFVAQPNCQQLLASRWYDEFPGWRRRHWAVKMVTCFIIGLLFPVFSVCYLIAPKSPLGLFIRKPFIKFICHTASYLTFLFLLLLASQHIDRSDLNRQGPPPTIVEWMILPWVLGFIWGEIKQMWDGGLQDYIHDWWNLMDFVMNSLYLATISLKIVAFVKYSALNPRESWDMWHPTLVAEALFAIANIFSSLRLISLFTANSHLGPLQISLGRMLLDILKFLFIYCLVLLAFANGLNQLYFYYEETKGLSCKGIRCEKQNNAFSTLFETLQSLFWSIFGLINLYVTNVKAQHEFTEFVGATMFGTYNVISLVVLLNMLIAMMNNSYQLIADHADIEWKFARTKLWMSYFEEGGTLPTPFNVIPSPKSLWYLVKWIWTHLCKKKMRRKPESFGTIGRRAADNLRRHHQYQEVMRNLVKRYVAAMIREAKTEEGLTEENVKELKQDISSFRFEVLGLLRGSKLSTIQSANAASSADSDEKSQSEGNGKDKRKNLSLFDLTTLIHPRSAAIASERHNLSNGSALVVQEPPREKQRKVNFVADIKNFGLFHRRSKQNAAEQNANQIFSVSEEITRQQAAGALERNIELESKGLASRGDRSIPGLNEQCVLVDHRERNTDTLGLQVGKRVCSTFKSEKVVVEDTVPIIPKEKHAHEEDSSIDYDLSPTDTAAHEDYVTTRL
GST-tagged N-terminal ICD of TRPC1 (P48995, residues 1-386): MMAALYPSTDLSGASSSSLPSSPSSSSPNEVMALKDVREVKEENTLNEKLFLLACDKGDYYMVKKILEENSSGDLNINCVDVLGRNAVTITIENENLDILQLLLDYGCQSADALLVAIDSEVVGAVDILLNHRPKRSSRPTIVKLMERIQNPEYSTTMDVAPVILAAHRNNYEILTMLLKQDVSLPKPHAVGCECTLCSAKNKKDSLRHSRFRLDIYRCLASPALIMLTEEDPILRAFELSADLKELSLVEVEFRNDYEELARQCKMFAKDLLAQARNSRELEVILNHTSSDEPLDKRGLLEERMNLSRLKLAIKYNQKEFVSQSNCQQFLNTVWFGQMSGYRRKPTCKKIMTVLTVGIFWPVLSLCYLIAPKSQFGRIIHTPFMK
GST-tagged C-terminal ICD of TRPC1 (P48995, residues 638-793): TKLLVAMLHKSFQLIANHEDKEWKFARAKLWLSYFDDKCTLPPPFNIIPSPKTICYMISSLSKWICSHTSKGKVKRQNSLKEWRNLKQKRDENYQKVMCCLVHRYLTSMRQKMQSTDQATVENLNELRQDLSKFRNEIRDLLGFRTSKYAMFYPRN
neural cell adhesion molecule (NCAM) (mouse (endogenous in mouse brain and neurons)) (P13595, residues 20-1115): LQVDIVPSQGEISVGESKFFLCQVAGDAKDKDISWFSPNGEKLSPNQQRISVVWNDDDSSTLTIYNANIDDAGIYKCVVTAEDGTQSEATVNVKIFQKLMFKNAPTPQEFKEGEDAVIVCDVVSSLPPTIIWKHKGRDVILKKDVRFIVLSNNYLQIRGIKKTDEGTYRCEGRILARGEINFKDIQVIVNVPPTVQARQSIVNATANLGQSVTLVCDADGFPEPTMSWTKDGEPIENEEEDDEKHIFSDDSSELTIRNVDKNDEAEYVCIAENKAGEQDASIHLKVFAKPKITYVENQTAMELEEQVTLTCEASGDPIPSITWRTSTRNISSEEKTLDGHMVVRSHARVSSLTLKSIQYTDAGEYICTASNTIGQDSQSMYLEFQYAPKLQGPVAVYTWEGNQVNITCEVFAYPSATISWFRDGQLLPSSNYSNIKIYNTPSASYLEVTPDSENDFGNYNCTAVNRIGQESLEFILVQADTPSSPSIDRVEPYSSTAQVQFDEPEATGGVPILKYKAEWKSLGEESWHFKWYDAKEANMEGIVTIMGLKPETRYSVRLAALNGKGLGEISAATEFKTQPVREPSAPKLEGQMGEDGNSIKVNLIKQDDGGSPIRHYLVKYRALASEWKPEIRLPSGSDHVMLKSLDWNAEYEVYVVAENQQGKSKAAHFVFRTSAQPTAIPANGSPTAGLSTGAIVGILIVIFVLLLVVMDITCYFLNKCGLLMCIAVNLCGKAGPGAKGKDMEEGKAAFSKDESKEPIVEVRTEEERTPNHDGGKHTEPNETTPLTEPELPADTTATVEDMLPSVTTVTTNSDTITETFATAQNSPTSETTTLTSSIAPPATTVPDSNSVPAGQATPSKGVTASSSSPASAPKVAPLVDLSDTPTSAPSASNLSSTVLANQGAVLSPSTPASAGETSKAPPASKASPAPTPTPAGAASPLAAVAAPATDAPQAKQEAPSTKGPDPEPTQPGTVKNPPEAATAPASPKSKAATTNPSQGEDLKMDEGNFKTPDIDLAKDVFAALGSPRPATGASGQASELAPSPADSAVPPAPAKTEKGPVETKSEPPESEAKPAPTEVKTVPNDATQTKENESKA
neural cell adhesion molecule isoform NCAM140 (P13595-2, form named): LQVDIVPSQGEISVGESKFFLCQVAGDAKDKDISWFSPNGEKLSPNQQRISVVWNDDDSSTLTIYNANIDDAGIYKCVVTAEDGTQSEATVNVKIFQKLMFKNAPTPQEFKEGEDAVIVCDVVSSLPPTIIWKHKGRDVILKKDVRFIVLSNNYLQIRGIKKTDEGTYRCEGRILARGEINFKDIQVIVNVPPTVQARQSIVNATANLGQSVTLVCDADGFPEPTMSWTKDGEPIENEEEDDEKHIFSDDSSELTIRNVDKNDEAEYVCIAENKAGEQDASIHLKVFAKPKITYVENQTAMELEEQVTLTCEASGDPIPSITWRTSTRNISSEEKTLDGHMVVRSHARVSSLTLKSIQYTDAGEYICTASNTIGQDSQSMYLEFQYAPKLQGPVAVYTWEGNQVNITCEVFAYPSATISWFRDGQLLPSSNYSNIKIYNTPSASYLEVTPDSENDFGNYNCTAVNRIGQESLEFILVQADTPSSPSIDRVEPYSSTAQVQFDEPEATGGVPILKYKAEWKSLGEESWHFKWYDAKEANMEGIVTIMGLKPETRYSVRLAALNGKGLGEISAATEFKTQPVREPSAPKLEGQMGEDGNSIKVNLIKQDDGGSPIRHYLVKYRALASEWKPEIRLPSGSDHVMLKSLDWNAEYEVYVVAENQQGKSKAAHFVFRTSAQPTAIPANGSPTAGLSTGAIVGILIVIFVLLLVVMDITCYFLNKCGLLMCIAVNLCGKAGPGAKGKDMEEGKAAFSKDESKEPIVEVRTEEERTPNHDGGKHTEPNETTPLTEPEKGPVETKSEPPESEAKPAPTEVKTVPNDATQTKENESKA

Tests used:
[1] = target: transient receptor potential canonical channel 1 (TRPC1) (mouse (endogenous in mouse brain and neurons)) (UniProt Q61056); assay: proximity ligation; Duolink assay on fixed, permeabilized wild-type cortical neurons transfected with plasma membrane and ER markers, read by TIRF microscopy; without or with function-triggering NCAM antibody or EndoN
[2] = target: transient receptor potential canonical channel 5 (TRPC5) (mouse (endogenous in mouse brain and neurons)) (UniProt Q9QX29); assay: as above
[3] = target: transient receptor potential canonical channel 4 (TRPC4) (mouse (endogenous in mouse brain and neurons)) (UniProt Q9QUQ5); assay: as above
[4] = target: transient receptor potential canonical channel 1 (TRPC1) (mouse (endogenous in mouse brain and neurons)) (UniProt Q61056); assay: proximity ligation; Duolink assay on fixed cultured hippocampal, cerebellar and cortical neurons of wild-type and NCAM-deficient mice; NCAM antibody GTX133217 with TRPC1 E-6, TRPC4 N77/15 or TRPC5 N67/15, or PSA antibody 735 with TRPC1 GTX54876 or TRPC4 ACC-119; confocal microscopy
[5] = target: transient receptor potential canonical channel 5 (TRPC5) (mouse (endogenous in mouse brain and neurons)) (UniProt Q9QX29); assay: as above
[6] = target: transient receptor potential canonical channel 4 (TRPC4) (mouse (endogenous in mouse brain and neurons)) (UniProt Q9QUQ5); assay: as above
[7] = target: T1, transient receptor potential canonical channel 7 (TRPC7) (mouse (endogenous in mouse brain)) (UniProt Q9WVC5); assay: co-IP; detergent extract (1% Nonidet P-40) of young adult mouse brain; IP with TRPC1 antibody H-105, TRPC4/5 antibody H-80, TRPC3/6/7 antibody H-100 or nonimmune Ig on Protein G or A Dynabeads, 2 h at 4 °C; Western blot with NCAM antibodies 5B8, D3 or TRPC3/6/7 antibody H-100
T1 sequence: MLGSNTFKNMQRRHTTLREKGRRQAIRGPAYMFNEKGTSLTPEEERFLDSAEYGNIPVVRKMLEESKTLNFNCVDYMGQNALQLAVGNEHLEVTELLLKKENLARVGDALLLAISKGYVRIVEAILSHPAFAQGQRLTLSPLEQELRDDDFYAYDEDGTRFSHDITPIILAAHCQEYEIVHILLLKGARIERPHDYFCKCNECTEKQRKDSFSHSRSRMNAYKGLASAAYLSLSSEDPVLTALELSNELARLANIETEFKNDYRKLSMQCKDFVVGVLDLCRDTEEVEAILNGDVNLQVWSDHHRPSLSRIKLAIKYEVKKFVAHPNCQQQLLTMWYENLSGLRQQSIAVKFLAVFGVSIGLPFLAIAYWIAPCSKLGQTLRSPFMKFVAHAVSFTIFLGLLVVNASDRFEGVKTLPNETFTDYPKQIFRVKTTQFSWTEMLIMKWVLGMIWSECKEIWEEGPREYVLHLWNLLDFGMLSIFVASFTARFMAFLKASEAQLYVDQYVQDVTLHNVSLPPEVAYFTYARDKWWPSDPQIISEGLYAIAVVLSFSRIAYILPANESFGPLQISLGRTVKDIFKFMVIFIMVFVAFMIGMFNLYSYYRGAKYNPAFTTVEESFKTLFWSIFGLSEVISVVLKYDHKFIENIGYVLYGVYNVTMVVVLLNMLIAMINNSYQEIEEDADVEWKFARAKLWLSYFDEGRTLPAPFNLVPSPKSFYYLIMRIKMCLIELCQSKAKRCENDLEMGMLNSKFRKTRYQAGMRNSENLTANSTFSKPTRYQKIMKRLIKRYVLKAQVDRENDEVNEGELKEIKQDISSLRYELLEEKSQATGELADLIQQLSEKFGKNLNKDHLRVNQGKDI

[8] = target: T2, transient receptor potential canonical channel 3 (TRPC3) (mouse (endogenous in mouse brain)) (UniProt Q9QZC1); assay: as above
T2 sequence: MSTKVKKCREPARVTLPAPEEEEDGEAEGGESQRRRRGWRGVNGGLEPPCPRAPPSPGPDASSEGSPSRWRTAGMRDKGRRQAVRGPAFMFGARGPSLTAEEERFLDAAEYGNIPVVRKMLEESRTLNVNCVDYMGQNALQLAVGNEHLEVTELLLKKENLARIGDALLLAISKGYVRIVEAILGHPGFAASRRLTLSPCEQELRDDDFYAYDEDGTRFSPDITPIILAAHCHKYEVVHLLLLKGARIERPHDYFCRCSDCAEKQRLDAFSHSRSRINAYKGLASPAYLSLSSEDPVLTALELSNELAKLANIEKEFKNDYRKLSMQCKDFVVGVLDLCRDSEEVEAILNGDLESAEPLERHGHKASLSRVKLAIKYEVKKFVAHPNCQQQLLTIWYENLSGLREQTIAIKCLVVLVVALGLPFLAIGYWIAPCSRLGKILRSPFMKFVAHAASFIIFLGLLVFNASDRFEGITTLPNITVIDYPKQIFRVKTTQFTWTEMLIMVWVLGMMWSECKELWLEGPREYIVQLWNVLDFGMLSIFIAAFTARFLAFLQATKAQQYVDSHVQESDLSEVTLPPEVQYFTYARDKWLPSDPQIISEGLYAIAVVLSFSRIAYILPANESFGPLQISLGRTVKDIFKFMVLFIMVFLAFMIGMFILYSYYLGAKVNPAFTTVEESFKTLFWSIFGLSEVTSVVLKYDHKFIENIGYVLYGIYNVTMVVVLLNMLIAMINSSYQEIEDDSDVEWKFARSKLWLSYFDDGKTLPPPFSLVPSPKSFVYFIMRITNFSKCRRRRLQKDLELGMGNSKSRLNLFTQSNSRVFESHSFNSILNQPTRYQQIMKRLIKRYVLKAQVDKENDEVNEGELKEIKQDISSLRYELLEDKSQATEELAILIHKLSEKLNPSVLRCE

[9] = target: transient receptor potential canonical channel 1 (TRPC1) (mouse (endogenous in mouse brain and neurons)) (UniProt Q61056); assay: as above
[10] = target: T3, transient receptor potential canonical channel 6 (TRPC6) (mouse (endogenous in mouse brain)) (UniProt Q61143); assay: as above
T3 sequence: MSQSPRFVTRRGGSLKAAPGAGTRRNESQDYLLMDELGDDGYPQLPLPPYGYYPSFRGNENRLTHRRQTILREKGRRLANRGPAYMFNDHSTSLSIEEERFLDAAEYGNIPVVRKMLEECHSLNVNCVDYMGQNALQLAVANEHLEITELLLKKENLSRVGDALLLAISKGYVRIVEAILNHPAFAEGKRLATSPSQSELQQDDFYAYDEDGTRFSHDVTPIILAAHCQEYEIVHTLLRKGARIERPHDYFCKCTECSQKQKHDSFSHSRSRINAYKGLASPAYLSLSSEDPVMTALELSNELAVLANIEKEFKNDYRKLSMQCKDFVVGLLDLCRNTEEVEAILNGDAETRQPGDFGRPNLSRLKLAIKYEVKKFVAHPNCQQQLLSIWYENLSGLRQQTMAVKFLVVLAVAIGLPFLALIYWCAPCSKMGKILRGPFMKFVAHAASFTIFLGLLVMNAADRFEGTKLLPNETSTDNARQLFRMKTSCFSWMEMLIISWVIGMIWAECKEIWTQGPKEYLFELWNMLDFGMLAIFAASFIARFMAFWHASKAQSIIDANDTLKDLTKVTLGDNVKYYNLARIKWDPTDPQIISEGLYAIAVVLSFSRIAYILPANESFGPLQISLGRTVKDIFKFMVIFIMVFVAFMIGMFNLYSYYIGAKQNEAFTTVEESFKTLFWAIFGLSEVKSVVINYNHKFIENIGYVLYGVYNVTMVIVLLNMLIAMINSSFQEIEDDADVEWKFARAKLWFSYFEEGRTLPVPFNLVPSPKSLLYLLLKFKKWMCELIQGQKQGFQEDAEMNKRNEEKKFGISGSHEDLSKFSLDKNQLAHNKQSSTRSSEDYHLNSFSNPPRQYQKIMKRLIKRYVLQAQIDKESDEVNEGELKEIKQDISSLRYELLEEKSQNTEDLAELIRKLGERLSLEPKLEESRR

[11] = target: GST-tagged N-terminal ICD of TRPC1 (human) (UniProt P48995); assay: pull-down; GST, GST-tagged N- or C-terminal TRPC1-ICD on glutathione–agarose beads, incubated with mouse brain detergent extract 2 h at 4 °C; Western blot with NCAM antibodies 5B8 and D3; only the target purified
[12] = target: GST-tagged C-terminal ICD of TRPC1 (human) (UniProt P48995); assay: as above
[13] = target: neural cell adhesion molecule (NCAM) (mouse (endogenous in mouse brain and neurons)) (UniProt P13595); assay: co-IP; brain detergent extracts of wild-type and NCAM-deficient mice; IP with NCAM antibody H28 (extracellular domain); Western blot with TRPC1 E-6, TRPC4 N77/15, TRPC5 N67/15 and TRPC3/6/7 H-100

Substance | binding [7] | binding [8] | binding [9] | binding [10] | binding [11] | binding [13] | also measured
neural cell adhesion molecule (NCAM) (from UniProt P13595 20-1115) | – | – | – | – | – | – | binding [1]: binds; binding [2]: binds; binding [3]: binds; binding [4]: binds; binding [5]: binds; binding [6]: binds
neural cell adhesion molecule isoform NCAM140 (from UniProt P13595-2 20-848) | no binding | no binding | binds | no binding | binds weakly | – | –
neural cell adhesion molecule isoform NCAM180 (from UniProt P13595-1 20-1115) | no binding | no binding | binds | no binding | binds | – | binding [12]: no binding
transient receptor potential canonical channel 1 (TRPC1) (from UniProt Q61056 1-793) | – | – | – | – | – | binds | –
transient receptor potential canonical channel 4 (TRPC4) (from UniProt Q9QUQ5 1-974) | – | – | – | – | – | binds | –
transient receptor potential canonical channel 5 (TRPC5) (from UniProt Q9QX29 1-975) | – | – | – | – | – | binds | –
